This list was built around the results that the source calls inconclusive (neither active nor inactive); the mix of calls is not that of the screen. The call rests on the fitted dose curve; in most records, active means well fitted curve in the direction sought with a large enough effect; inconclusive means small, poorly fitted or top-dose-only effect, or another doubt; inactive means no such curve, though single readings can be large or run the other way. Potencies of inconclusive entries are left out as doubtful fits.
Molecular target: Calcium and integrin-binding protein 1 (Homo sapiens) (UniProt Q99828)
Experiment: Validation qHTS for Identification of Calcium Integrin Binding protein 1 (CIB1) Competitor (AID 1508618)
Conditions: CIB1-GST / FITC-alphaIIb peptide fluorescence polarization; series mostly up to 114 µM
Method in brief: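 CIB1-GST (1 uM final) incubated 15 min at room temperature with compounds (up to 114 uM), then FITC-labelled alphaIIb peptide (100 nM) added. FP read (Ex 480/Em 540) after 15 min, pH 7.4 buffer containing 5 mM CaCl2.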
Potency means the concentration at half of the fitted maximal effect; tags describe the fitted curve by direction and shape.

Chain of UniProt Q99828 (Q99828 whole entry, looked up): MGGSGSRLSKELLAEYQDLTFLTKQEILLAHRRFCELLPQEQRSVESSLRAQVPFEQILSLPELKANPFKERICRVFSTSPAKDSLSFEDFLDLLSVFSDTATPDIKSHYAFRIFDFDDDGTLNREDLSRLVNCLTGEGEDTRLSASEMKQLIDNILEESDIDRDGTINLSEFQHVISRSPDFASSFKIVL

SMILES: CCN1CCc2nc(N)oc2CC1
- Potency: inconclusive [inhibitor, partial curve, poor fit]
